The shares of active, inactive and inconclusive entries below differ from those in the screen. Unless noted, calls come from the whole dose curve; as a rule, active = well fitted curve in the direction sought with a large enough effect; inconclusive = small, poorly fitted or top-dose-only effect, or another doubt; inactive = no such curve, though single readings can be large; an effect the other way counts as inactive or inconclusive. For some of these results: Potencies of inconclusive entries are left out as doubtful fits. For some of these results: A note “side channel” means that the fit belongs to a control or component signal, not to the main read-out.
Columns and labels:
[1] = Primary qHTS for inhibitors of La Crosse Virus (LACV) - induced cell death in SH-SY5Y cells (AID 1508616); note: potency is the fitted concentration of half-maximal effect
How it was run: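 Readout was luminescence from ATPLite 1step added after a 6-day LACV infection (0.01 MOI) of SH-SY5Y cells that had received pin-transferred compound 24 hr after seeding.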

[2] = target: Glucocorticoid receptor (Homo sapiens) (UniProt P04150); test: qHTS assay for small molecule agonists of glucocorticoid receptor signaling (AID 588532; active = well fitted curve in the direction sought with a large enough effect in the signal ratio, with a control signal flat; inconclusive = small, poorly fitted or top-dose-only effect, or a change in a side signal; inactive = no such curve, though single readings can be large or run the other way; the % refers to the signal ratio; note: potency is the fitted concentration of half-maximal effect); details: HeLa MMTV-bla, beta-lactamase ratio, agonist, 18 h; activation: stronger effect = higher value, percent of dexamethasone control, DMSO zero
How it was run: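 Titration series, up to 92 uM, applied to GRE-bla HeLa cells for 18 h at 37 C. Detection by CCF4 FRET substrate after 2 h at RT.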

[3] = target: Retinoic acid receptor RXR-alpha (Homo sapiens) (UniProt P19793); test: qHTS assay for small molecule antagonists of retinoid X receptor alpha signaling (AID 588546; active = well fitted inhibition curve with a large enough effect in the signal ratio, with a control signal flat, not every such curve was filed as active; inconclusive = small, poorly fitted or top-dose-only effect, or effect the other way, or a change in a side signal; inactive = no such curve, though single readings can be large or run the other way; the % refers to the signal ratio;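 note: cells stimulated with 9-cis-retinoic acid as agonist; % is set by controls: 0 for no effect and ±100 for the full control effect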); details: HEK293T RXRa-UAS-bla, beta-lactamase ratio, antagonist mode
Chain of UniProt P19793 (P19793 whole entry, looked up): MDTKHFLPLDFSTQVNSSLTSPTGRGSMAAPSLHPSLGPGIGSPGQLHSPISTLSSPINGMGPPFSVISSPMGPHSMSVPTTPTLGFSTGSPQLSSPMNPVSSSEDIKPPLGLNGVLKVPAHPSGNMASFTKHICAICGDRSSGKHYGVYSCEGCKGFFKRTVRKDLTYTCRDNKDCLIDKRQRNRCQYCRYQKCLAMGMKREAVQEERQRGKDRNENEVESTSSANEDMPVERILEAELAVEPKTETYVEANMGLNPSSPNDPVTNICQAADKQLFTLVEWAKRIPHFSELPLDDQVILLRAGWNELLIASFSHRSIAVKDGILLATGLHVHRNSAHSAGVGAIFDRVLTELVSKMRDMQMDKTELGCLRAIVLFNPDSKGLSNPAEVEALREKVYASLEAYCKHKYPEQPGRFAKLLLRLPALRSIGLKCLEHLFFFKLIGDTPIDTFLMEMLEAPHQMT
How it was run: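 Beta-lactamase reporter inhibition, read as CCF4 fluorescence ratio (ex 405, em 460/530 nm) after 2 h at RT. HEK293T UAS-bla cells, 2500/well, were stimulated with 9-cis-RA at 500 or 100 nM final alongside test compound for 18 h at 37 C.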

[4] = Cell Viability - LYMP2-005 (AID 967); note: potency is the fitted concentration of half-maximal effect
How it was run: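 CellTiter-Glo luminescence (cellular ATP) read-out; LYMP2-005 lymphoblastoid cells, 2500/well, 5 h pre-incubation, then 24 h compound exposure at 37 C in complete medium. Tetraoctylammonium bromide positive control; AC50 by standard Hill fit.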
Tags give direction and shape of the fitted curve or compound fluorescence and quenching.

With `CC(=O)O[C@H]1CC[C@@]2(C)C(=CC[C@@H]3[C@@H]2CC[C@]2(C)C(C(C)=O)=CC[C@@H]32)C1` as the molecule, how does the Potency [1] read?
Its Potency is inconclusive [inhibitor, partial curve, poor fit].

Which results are given for `CC(=O)OCC(COC(C)=O)OC(C)=O`?
Potency [2]: inconclusive [side channel, falling, full curve, poor fit]; max response [3]: inconclusive: -6.23%

For `OC[C@H]1O[C@@H]2O[C@H]3[C@H](O)[C@@H](O)[C@@H](O[C@H]4[C@H](O)[C@@H](O)[C@@H](O[C@H]5[C@H](O)[C@@H](O)[C@@H](O[C@H]6[C@H](O)[C@@H](O)[C@@H](O[C@H]7[C@H](O)[C@@H](O)[C@@H](O[C@H]8[C@H](O)[C@@H](O)[C@@H](O[C@H]1[C@H](O)[C@H]2O)O[C@@H]8CO)O[C@@H]7CO)O[C@@H]6CO)O[C@@H]5CO)O[C@@H]4CO)O[C@@H]3CO`, which Potency [4] is on record?
The Potency was inconclusive [cytotoxic].

From PubChem BioAssay (NCATS)
